PubChem BioAssay AID1159614 (National Center for Advancing Translational Sciences (NCATS), 2016)
Hit rate of the full screen: of about 45,000 compounds, about 65 (0.1%) were called active. The call rests on the fitted dose curve; in most records, active means well fitted activation curve with a large enough effect; inconclusive means small, poorly fitted or top-dose-only effect; inactive means no such curve, though single readings can be large or run the other way. The list shows a part of the results.

molecular target: Galactocerebrosidase (Homo sapiens) (UniProt P54803); assay: A Novel Cell-Based Assay to Identify Small Molecules for B -Galactocerebrosidase; conditions: 145M-Twi-hGALC-G270D cells, HMU-beta-Gal fluorescence, 48 h; series mostly up to 57.5 µM; activation: at the top concentration; further: 0% is about no effect; nearly all actives have a fitted effect of over 65% in size
Summary of the method: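 qHTS, 1536-well; 145M-Twi-hGALC-G270D cells (WT line also made) in DMEM/F12 + 10% FBS; compound incubation on live cells; HMU-β-gal 0.1 mM final, pH 5.2, NaTC; carbonate stop; fluorescence increase = enhanced residual activity.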

Chain of UniProt P54803 (P54803 whole entry, looked up): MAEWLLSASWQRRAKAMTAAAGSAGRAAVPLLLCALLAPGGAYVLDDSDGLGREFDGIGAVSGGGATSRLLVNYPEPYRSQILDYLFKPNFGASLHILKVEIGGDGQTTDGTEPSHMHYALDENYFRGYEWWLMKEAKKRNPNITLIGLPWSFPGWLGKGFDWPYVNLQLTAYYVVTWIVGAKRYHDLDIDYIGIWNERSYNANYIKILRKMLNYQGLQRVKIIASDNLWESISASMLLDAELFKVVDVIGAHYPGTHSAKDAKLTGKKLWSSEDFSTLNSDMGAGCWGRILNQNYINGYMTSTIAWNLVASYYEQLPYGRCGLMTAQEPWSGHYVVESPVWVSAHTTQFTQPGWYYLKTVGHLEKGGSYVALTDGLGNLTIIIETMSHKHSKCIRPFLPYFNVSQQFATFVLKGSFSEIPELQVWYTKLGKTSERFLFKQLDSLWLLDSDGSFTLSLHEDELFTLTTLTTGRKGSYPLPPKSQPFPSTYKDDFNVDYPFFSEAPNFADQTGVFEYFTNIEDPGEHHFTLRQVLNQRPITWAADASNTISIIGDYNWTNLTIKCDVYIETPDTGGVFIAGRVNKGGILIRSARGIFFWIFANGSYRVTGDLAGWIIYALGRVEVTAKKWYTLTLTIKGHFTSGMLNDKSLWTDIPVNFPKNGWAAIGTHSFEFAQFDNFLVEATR

activation, inactive:
COc1ccc(NC(=O)CSc2nc(-c3ccco3)cc(C(F)(F)F)n2)cc1 8.11%
O=C1c2cccc3c2[C@H](CCC3)CN1[C@@H]1CN2CCC1CC2 -10.5%
COc1ccc(Cl)cc1NC(=O)CCC(=O)N1CCOc2ccccc21 -9.45%
COc1ccccc1C(=O)Nc1nc2nc(C)cc(=O)n2[nH]1 -5.17%
CCOC(=O)c1cccc(NC(=O)CCc2nc3cccnc3n2-c2ccccc2)c1 -9.45%
CCOc1ccc(NC(=O)C2(c3cccs3)CCOCC2)cc1 -14.6%
Cc1cc(C)c2sc(NC(=O)c3ccc(S(=O)(=O)N4CCCC4)cc3)nc2c1 -13.8%
CNC(=O)Oc1ccc2c(c1)[C@]1(C)CCN(C)[C@@H]1N2C -5.98%
CCOC(=O)c1c(C)[nH]c(CCC(=O)Nc2cc(Cl)ccc2OC)c1C -13%
O=C(O)CSCC(=O)NC1CCSC1=O (stereo unspecified) -12.5%
CCOC(=O)c1c(C)oc2ccc(N(C(=O)c3ccncc3)S(=O)(=O)c3ccc(CC)cc3)cc12 -41.3%
COc1ccc(OC)c(S(=O)(=O)Nc2ccc3c(c2)n(C)c(=O)n3C)c1 0.952%
O=C(CN1C(=O)COc2ccc(S(=O)(=O)NC3CCCC3)cc21)Nc1ccc(Cl)cc1F -26.7%
Cc1ccc(S(=O)(=O)N2CC=C(c3c(C)n(CC(=O)N4CCCC4)c4ccccc34)CC2)cc1C -30.5%
Cc1sc(-n2cccc2)c(C(C)NC(=O)Nc2cccc(C(F)(F)F)c2)c1C (stereo unspecified) -5.48%
COc1cc(OC)cc(C(=O)NCCc2csc3nc(-c4ccccc4F)nn23)c1 -4.4%
COCCOCC(OC)OC -9.18%
CN(C)S(=O)(=O)N(CC(=O)Nc1ccc(C(F)(F)F)cc1)c1ccccc1 -6.6%
Cc1ccc(OCCSc2nc3ccc(NC(=O)c4cccs4)cc3s2)cc1 19.7%
Cc1nc(N2CCOCC2)c2c(C(=O)NCc3ccc(Cl)cc3)c(C)oc2n1 -17.7%
CCc1ccc(NC(=O)c2nc3nc(C)cc(C(F)F)n3n2)cc1 -5.58%
COc1ccc(CNC(=O)c2ccc3c(c2)N(Cc2cc(C)ccc2C)C(=O)CS3)cc1 -1.18%
COc1ccc(CNc2nc(-c3ccc(Cl)cc3)nn2S(=O)(=O)c2ccc(C)cc2)cc1 -25.9%
COc1ccccc1CNS(=O)(=O)c1cc(Br)cc2c1N(C(=O)C1CC1)CC2 -0.194%
CCOc1cccc(C(=O)N(Cc2ccc(C)o2)C2CCS(=O)(=O)C2)c1 (stereo unspecified) -12.3%
O=C(CCC(=O)N1CCSc2ccccc21)Nc1ccc(Cl)cc1 -12.7%
CCC(CC)c1nn2c(=O)cc(COc3ccc(NC(=O)c4cccc(C)c4)cc3)nc2s1 -19.3%
COc1cccc(CNC(=O)c2cc(-c3ccc(Cl)cc3)n[nH]2)c1 -8.76%
COc1ccccc1-c1nn2c(=O)cc(CN3CCN(C(=O)Nc4ccc(C)cc4Cl)CC3)nc2s1 -15.4%
CCOc1ccc(-n2c(=O)c3c(C)c(C)sc3n(CC(=O)C(C)(C)C)c2=O)cc1 -7.23%
O=c1cc(COc2ccc(Cl)cc2Cl)nc2scc(-c3ccccc3)n12 -0.435%
CC(CNC(=O)c1ccc2c(c1)nc1n2CCCCC1)c1ccccc1 (stereo unspecified) -9.46%
CCOc1ccc(CC(=O)NC2CC(=O)N(c3cccc(F)c3)C2)cc1 (stereo unspecified) -8.85%
COc1ccccc1OCC(=O)N(Cc1ccco1)Cc1ccccc1F -14.1%
Cc1cc(C)cc(NC(=O)CCc2c(C)nc3nc(CNC(=O)c4cccc(F)c4)nn3c2C)c1 -16.7%
COCCCNc1nc2c(c(=O)n(Cc3ccc(F)cc3)c(=O)n2C)n1C -11.5%
CCCCC(=O)Nc1nnc(S(=O)(=O)N(C)Cc2ccc(Cl)cc2)s1 -7.09%
COc1ccc(N(Cc2cccs2)C(=O)c2ccco2)cc1 -10.7%
CC(=O)c1ccc(N2CCN(C(=O)c3cn(C)c(=O)c4c3c3ccccc3n4C)CC2)cc1 -10.4%
Cc1ccc(-n2c(=O)c3c(c4cc(C)ccc4n3C)n(CC(=O)Nc3ccc(F)cc3)c2=O)cc1 -3.75%
CCS(=O)(=O)N1CCc2cc(C(=O)Nc3ccc(Br)cc3F)ccc21 -31.4%
CCc1cccc(C)c1NC(=O)c1ccc2c(c1)CCN2S(=O)(=O)c1ccc(Cl)cc1 -9.99%
COc1cc(C(=O)NCC(c2ccco2)S(=O)(=O)c2cccs2)cc(OC)c1OC (stereo unspecified) -0.286%
COc1ccc(CNC(=O)COCc2cc(-c3ccc4c(c3)OCO4)on2)cc1 -6.05%
Cc1c(Cl)cccc1Nc1nn2c(=O)c3ccccc3nc2s1 -9.44%
COC(=O)c1cc2oc3ccccc3c2n1Cc1ccc(C)cc1 2.1%
CCOC(=O)c1cc2c(=O)n3ccccc3nc2n(Cc2ccco2)c1=NC(=O)c1ccccc1Br -0.534%
COc1ccc(OC)c(S(=O)(=O)NCC(c2ccc(N(C)C)cc2)N2CCOCC2)c1 (stereo unspecified) -22.2%
COC(=O)c1cc(NC(=O)c2cc3c(-c4ccccc4F)nn(C)c3s2)cc(C(=O)OC)c1 4.37%
COc1ccc(N2CCN(S(=O)(=O)c3ccc(CC(C)C)cc3)CC2)cc1 -13%
O=C(NCC(c1ccco1)S(=O)(=O)c1cccs1)c1ccccc1 (stereo unspecified) -17.6%
CCOC(=O)c1cccc(NC(=O)C(C)n2nc(C)c3c(C)n(-c4ccccc4)nc3c2=O)c1 (stereo unspecified) -13%
COc1ccc(-c2[nH]c(-c3ccc(O)cc3)nc2-c2ccccc2)cc1 -40.2%
Cc1ccc([N+](=O)[O-])cc1NC(=O)CN(c1ccccc1)S(=O)(=O)N(C)C 1.22%
Cc1oc(-c2ccccc2F)nc1CS(=O)(=O)CC(=O)N1CCN(c2ccccc2)CC1 -13.3%
CCOc1ccc(NC(=O)Cn2c(=O)n(CCCC(=O)NCCc3ccc(Cl)cc3)c(=O)c3ccccc32)cc1 -5.92%
Cc1ccccc1-c1noc(-c2ccc(NCC3CCCO3)c([N+](=O)[O-])c2)n1 (stereo unspecified) -14%
Cc1ccc(Cn2c(SCC(=O)NCc3ccccc3)nc3ccsc3c2=O)cc1 -13.2%
Cc1cccc(N2CCN(S(=O)(=O)c3ccc(-c4cnc(C5CC5)o4)cc3)CC2)c1C -6.71%
CCOC(=O)C1CCCN(CC(=O)N2CCCc3c2c(=O)oc2ccc(OCc4ccccc4)cc32)C1 (stereo unspecified) -10.8%
COc1cc(OC)cc(C(=O)Nc2cc(-c3nc4cc(Cl)ccc4o3)ccc2Cl)c1 -1.39%
CCN1CCN(CCCNC(=O)c2cc3c(s2)-c2ccccc2OC3)CC1 -9.74%
O=C(CN1C(=O)COc2ccc(S(=O)(=O)N3CCCC3)cc21)N1CCN(c2ccccc2)CC1 22.6%
O=C(CSc1ncc2c(n1)-c1ccc(Cl)cc1N(Cc1ccccc1)S2(=O)=O)Nc1ccc(F)c(F)c1 -12.3%
COc1ccc2c(Sc3ccccc3)c(C(=O)NCCc3ccc(Cl)cc3)[nH]c2c1 -15.3%
COc1ccc(CNC(=O)Nc2ccc3c(c2)N(C)C(=O)c2ccccc2S3)cc1 -43.8%
CC(=O)C1=C(c2ccc(C)cc2)N(C(C)=O)n2c(nnc2C2CCCCC2)S1 -8%
CCOc1ccc(C2C(C(N)=O)=C(C)Nc3nc(SCc4ccccc4)nn32)cc1 (stereo unspecified) 10.5%
O=C(NCc1ccc2c(c1)CCN2C(=O)c1ccccc1)c1cc2ccccc2[nH]1 -16.2%
CCc1ccc(NC(=O)c2sc3ncnc(N(C)C4CCCCC4)c3c2C)cc1 -16.9%
O=C(c1cccs1)c1cn(CCOc2ccccc2F)c2ccccc12 -31.3%
COc1cccc2cc(-c3nc(Nc4cccc(C)c4)sc3C)c(=O)oc12 -4.66%
COc1ccc(-c2nnc(SCc3cc(=O)c4cc(C)cc(C)c4[nH]3)n2C)cc1 1.91%
COc1cccc(CN2C(=O)c3ccccc3Sc3ccc(C(=O)N(C)Cc4ccccc4)cc32)c1 -14.3%
COc1ccccc1NC(=O)c1cc2ccc3cccnc3c2[nH]1 -19.8%
CCCCNC(=O)CSc1nc2ccccc2nc1Cc1ccc(C)cc1 -6.5%
CCOC(=O)c1ccccc1NC(=O)c1c2c(nc3ccccc13)C(=O)N(C1CCCCC1)C2 -1.64%
CC(C)c1ccc(S(=O)(=O)c2nnn3c2nc(N2CCN(C)CC2)c2sccc23)cc1 -3.56%
COc1cc(C2c3c(-c4ccccc4O)n[nH]c3C(=O)N2CCO)ccc1OCc1ccccc1 (stereo unspecified) -7.77%
CC(=O)c1cccc(NC(=O)c2nc3ccccc3n(C)c2=O)c1 -2.81%
COc1cccc(CNC(=O)c2ccc3nc(-c4ccc(F)cc4)c(-c4ccc(F)cc4)nc3c2)c1 -1.32%
Cc1cccc(CNS(=O)(=O)c2ccc(-c3cnc(C4CC4)o3)cc2)c1 -18.4%
CCCc1cc(=O)n2[nH]c(NC(=O)c3ccc(C(C)(C)C)cc3)nc2n1 -1.54%
COc1cc(NC(=O)C2CCN(c3cnc4ccccc4n3)CC2)cc(OC)c1OC -22.9%
CC(=O)c1cccc(NC(=O)CN2C=NS(=O)(=O)c3ccc(C)cc32)c1 -9.88%
Cc1ccc(CNC(=O)COCc2cc(-c3cccs3)on2)cc1 -9.23%
COc1ccc(C(=O)Nc2nc3nc(C)c(Cc4ccccc4)c(=O)n3[nH]2)cc1OC -15.4%
CCOc1ccc(CNC(=O)C2CCN(S(=O)(=O)N3CCC(C)CC3)CC2)cc1OC -7.08%
CC1=C(C(=O)Nc2cccnc2)C(c2cccc(Br)c2)n2nc(SCc3ccccc3)nc2N1 (stereo unspecified) -7.7%
Cc1cccc(-c2noc(-c3ccccc3NC(=O)C3CC(=O)N(c4ccccc4C)C3)n2)c1 (stereo unspecified) 1.88%
Cn1ccc2cc(S(=O)(=O)N3CCCC(C(=O)NCc4ccccc4)C3)ccc21 (stereo unspecified) -2.35%
CCn1c(=O)c2cc(C(=O)Nc3cc(OC)c(OC)c(OC)c3)sc2c2ccccc21 -4.52%
CC1=C(C(=O)Nc2ccccc2C)C(c2ccncc2)n2nc(SCc3ccccc3Cl)nc2N1 (stereo unspecified) 3.43%
COc1ccc(NC(=O)CCSc2nc(-c3ccc(OC)cc3)cc(C(F)(F)F)n2)cc1 13.9%
O=C(NCCS(=O)(=O)N1CCN(c2ccccc2)CC1)C1CC(=O)N(c2ccc(F)cc2)C1 (stereo unspecified) -10.6%
O=C(COc1ccc(F)cc1)OCc1cc(=O)n2nc(C3CCCCC3)sc2n1 -13.7%
